PubChem BioAssay AID686979 (National Center for Advancing Translational Sciences (NCATS), 2013)
The whole screen tested about 420,000 compounds, of which about 50,000 (12%) were called active. The shares of active, inactive and inconclusive entries below differ from those in the screen. Calls come from the whole dose curve; as a rule, active = well fitted inhibition curve with a large enough effect; inconclusive = small, poorly fitted or top-dose-only effect; inactive = flat fitted curve, though single readings scatter. Potencies of inconclusive entries are left out as doubtful fits.

Experiment: qHTS for Inhibitors of human tyrosyl-DNA phosphodiesterase 1 (TDP1): qHTS in cells in presence of CPT; note: nearly all actives have a fitted effect of over 55% in size
Settings: chicken DT40 Tdp1-/-;hTDP1 cells + 20 nM CPT, ATP luminescence, 48 h; activity change, negative = growth inhibition: at 46.2 µM (top of the series) unless noted
Summary of the method: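 Chicken DT40 Tdp1-/- cells stably complemented with human TDP1 were seeded at 400 cells/well in medium containing 20 nM camptothecin, exposed to pin-transferred compounds, and grown at 37 °C for at least 48 hr. Viability was read as ATP luminescence.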
% is set by controls: 0 for no effect and ±100 for the full control effect; potency is the fitted concentration of half-maximal effect; tags give direction and shape of the fitted curve.

| Compound | Potency | activity change, negative = growth inhibition |
| --- | --- | --- |
| O=C(CSc1nc(C2CC2)nc2ccccc12)Nc1ccc2c(c1)OCCO2 | inconclusive [inhibitor, single point] | – |
| CCC(=O)NC(c1cccc([N+](=O)[O-])c1)c1c(OC(C)=O)ccc2ccccc12 (stereo not given) | inconclusive [inhibitor, single point] | – |
| C=CCn1c(SCC(=O)N(CC)c2c(N)n(Cc3ccccc3)c(=O)[nH]c2=O)nnc1-c1ccccc1OC | inactive | – |
| CS(=O)(=O)Nc1cccc(-c2cncnc2Nc2ccccc2)c1 | inconclusive [inhibitor, single point] | – |
| Cc1cc(C(=O)O)cc(S(=O)(=O)Nc2ccccc2C(=O)NC(C)c2ccccc2)c1C (stereo not given) | inactive | – |
| Cc1ccc(-c2nnc(Nc3ccc(O)cc3)c3ccccc23)cc1S(=O)(=O)NCC1CCCO1 (stereo not given) | inconclusive [inhibitor, single point] | – |
| CN(c1ccc(OCCOc2ccccc2Cl)cc1)S(=O)(=O)c1ccccc1 | inconclusive [inhibitor, partial curve, poor fit] | – |
| Cc1nc(SCC(=O)Nc2ccc(F)cc2)c(C#N)c(C)c1CC(=O)c1ccc(Br)cc1 | active: 16.4 µM | – |
| CN1C(=O)/C(=C\c2ccncc2)SC1=Nc1ccccc1 | inconclusive [inhibitor, single point] | – |
| COc1cccc(CN2CCC(n3cc(C(=O)NC4CCCC4)nn3)CC2)c1O | – | inactive: 13.8% [at 9.04 µM] |
| O=C(Nc1ccc(Cl)cc1)c1ccc2sc([C@@H]3O[C@H](CO)[C@@H](O)[C@H]3O)nc2c1 | inconclusive [inhibitor, single point] | – |
| O=C(/C=C/c1ccco1)Nc1ccc(Cl)c(-c2nc3cc(Cl)ccc3o2)c1 | inconclusive [inhibitor, single point] | – |
| Cc1ccccc1-n1nc2c(c1NC(=O)c1cc3ccccc3oc1=O)CS(=O)(=O)C2 | inconclusive [inhibitor, single point] | – |
| COc1cccc(NC(=O)c2ccc(CNS(=O)(=O)c3ccc4c(c3)C(C)(C)C(=O)N4C)cc2)c1 | inconclusive [inhibitor, single point] | – |
| Cc1ccc(N/N=C(\C#N)C(=N)N2CCCCC2)cc1 | – | inconclusive: -31.8% [inhibitor] |
| Cc1cc(C(=O)CN2C(=O)C(=O)N(Cc3ccccc3)C2=O)c(C)n1-c1ccc2c(c1)OCCO2 | active: 14.6 µM | – |
| COC(=O)C1=C(C)Nc2ncnn2C1c1ccc(OCc2ccccc2)cc1 (stereo not given) | inactive | – |
| CC(=O)C[C@H](O)CC(=O)[C@H]1OC(=O)CCCCCCCc2ccccc21 | inactive | – |
| COc1ccc(/C=C2/SC(=O)N(CCNC(=O)C3CCCN3C(=O)c3cccs3)C2=O)cc1 (stereo not given) | inconclusive [inhibitor, single point] | – |
| C=C(C)C1CC=C(C)/C(=N\NC(=O)CCc2ccccc2)C1 (stereo not given) | inactive | – |
| CC(CC(=O)Nc1ccc2c(c1)c(=O)n(C)n2-c1ccccc1)c1ccccc1 (stereo not given) | active: 5.17 µM | – |
| O=C1OC[C@@H]2CCCN2C(=O)[C@H](CC(=O)N(CCO)Cc2ccccc2)C/C=C\CC[C@H]1Cc1ccc(F)cc1 | active: 23.1 µM | – |
| CN(C)c1cccc(C(=O)Nc2ccc(-c3nc4ccccc4s3)cc2)c1 | inconclusive [inhibitor, single point] | – |
| O=C(CSc1nc2c(oc3ccccc32)c(=O)[nH]1)Nc1cccc(Cl)c1 | inconclusive [inhibitor, single point] | – |

| Compound | Potency | activity change, negative = growth inhibition |
| --- | --- | --- |
| N#Cc1ccc(-c2csc(NNC(=O)c3ccc(Br)cc3)n2)cc1 | active: 5.17 µM | – |
| COc1ccccc1Nc1nc2ccccc2n2cnnc12 | inconclusive [inhibitor, partial curve] | – |
| C=CCC1(CC=C)CCCN1C(=O)c1cc(COc2ccc(F)c(F)c2)on1 | active: 18.4 µM | – |
| O=C(C[C@H]1C[C@H](C(=O)N2CCCCC2)[C@@]2(CCc3ccccc3)c3[nH]c4ccc(Cl)cc4c3CCN2C1=O)NCc1ccco1 | active: 7.31 µM | – |
| CCC(CO)Oc1cc(NCc2ccc(C)cc2)c2ncn(C(C)C)c2c1 (stereo not given) | inconclusive [inhibitor, partial curve] | – |
| CCCn1c(N)c(C(=O)CSc2ncc(C(F)(F)F)cc2Cl)c(=O)[nH]c1=O | inconclusive [inhibitor, full curve] | – |
| Cc1ccc(OCCn2c(SCCO)nc3c(N)ncnc32)cc1 | inconclusive [inhibitor, partial curve, poor fit] | – |
| COc1ccc(C(=O)c2ccc(C)cc2)c(OC)c1OC | active: 23.1 µM | – |
| Cc1ccc(CCNC(=O)c2ccc(CSCc3ccc(C)cc3)o2)cc1 | inconclusive [inhibitor, single point] | – |
| CCOc1cc(CNn2cnnc2)cc(Cl)c1OCC(=O)NC(C)(C)C | inactive | – |
| CCCOC(=O)c1[nH]c2c(c1C)C(=O)CC(c1ccc(OC)c(OC)c1)C2 (stereo not given) | inconclusive [inhibitor, single point] | – |
| O=C(c1csc2c1CCCC2)N1CCN(c2cccc(C(F)(F)F)c2)CC1 | inconclusive [inhibitor, single point] | – |
| Nc1ccc2c(c1)C(=O)c1ccccc1-2 | inactive | – |
| Cc1nc(C(=O)NC2CCCCC2)sc1C1(C)CC(c2cccc([N+](=O)[O-])c2)=NO1 (stereo not given) | inconclusive [inhibitor, single point] | – |
| COc1cc(NC(=O)c2cc(OC)c(OC)c(OC)c2)c2ncccc2c1 | inconclusive [inhibitor, single point] | – |
| O=C(CN1c2cccc3cccc(c23)S1(=O)=O)Nc1ccccc1 | inconclusive [inhibitor, single point] | – |
| COc1cccc(NC(=O)N2CCN(c3nnnn3-c3ccccc3)CC2)c1 | inactive | – |
| COc1ccc(CN2CCN(Cc3c[nH]c4ccccc34)CC2)cc1 | active: 6.51 µM | – |
| CCOC(=S)SCC(=O)Nc1nccs1 | active: 20.6 µM | – |
| Cc1ccc(C(=O)Nc2ccccc2C(=O)N2CC3(C)CC2CC(C)(C)C3)cc1 (stereo not given) | inactive | – |
| CCCCNC(=O)C1c2ccccc2OCC(=O)N1Cc1ccccc1 (stereo not given) | inconclusive [inhibitor, single point] | – |
| CCc1nnc(NC(=O)CSCc2cc(=O)n3nc(C)sc3n2)s1 | inconclusive [inhibitor, single point] | – |
| CC(=O)c1ccc(N(C(=O)c2ccco2)C(C(=O)NC2CCCC2)c2ccc(N3CCOCC3)cc2)cc1 (stereo not given) | inactive | – |
| COc1cccc(C=NNC(=O)CCCC(=O)NN=Cc2cccc(OC)c2)c1 | inactive | – |

| Compound | Potency | activity change, negative = growth inhibition |
| --- | --- | --- |
| COc1ccc(-c2cc3nc(NCCN4CCCC4)n(C)c(=O)c3s2)cc1OC | inconclusive [inhibitor, single point] | – |
| O=C(NCc1cccs1)c1ccccc1[N+](=O)[O-] | inactive | – |
| CCc1ccc(NC(=O)Cn2c(=O)ccc3cc(S(=O)(=O)N4CCCC4)ccc32)cc1 | inactive | – |
| O=C(CCc1ccc(Oc2cc([N+](=O)[O-])cc([N+](=O)[O-])c2)cc1)N1CCCCCC1 | active: 18.4 µM | – |
| CN(C)CCNC(=O)c1cccc(-c2cnc3c(NC=O)cc(-c4cccs4)cn23)c1 | inconclusive [inhibitor, single point] | – |
| C/C(=N\NC(=O)C1CCCC1)c1ccc(C(C)C)cc1 | inconclusive [inhibitor, single point] | – |
| CCc1ccc(NC(=O)CCNS(=O)(=O)c2cccc3nonc23)cc1 | inconclusive [inhibitor, partial curve, poor fit] | – |
| CC1CCCC(NC(=O)CNCc2ccccc2F)C1C (stereo not given) | inactive | – |
| COC(=O)[C@@]12C[C@@H](CC(=O)NCCc3ccccc3OC)C(=O)N(Cc3cccc4ccccc34)C1=CCC(C)(C)C2 | inconclusive [inhibitor, single point] | – |
| CN(C(=O)c1cccc(NC(=O)Cc2ccc(NC(=O)C3CCCN(C(=O)c4ccccc4)C3)cc2)c1)C1CCCC1 (stereo not given) | inconclusive [inhibitor, single point] | – |
| CC(=O)Oc1ccc(C(=O)Nc2cccc(C(=O)c3ccc(C)c(C)c3)c2)cc1 | inconclusive [inhibitor, single point] | – |
| CCOC(=O)c1cccc(Nc2cc(C)nc(C)n2)c1 | inconclusive [inhibitor, single point] | – |
| COc1ccc(S(=O)(=O)N2CCN(Cc3ccc(OC)c(OC)c3)CC2)cc1 | inactive | – |
| COc1ccc(N(CC(=O)N2CCN(c3ccccc3)CC2)S(=O)(=O)c2ccccc2)cc1 | active: 16.4 µM | – |
| NS(=O)(=O)c1ccc(CNC(=S)Nc2ccc(Cl)c(Cl)c2)cc1 | inactive | – |
| COc1ccc(S(=O)(=O)N2CCC3(CC2)OCCO3)cc1 | inactive | – |
| Cc1ccc(C2NC(=O)c3c(sc(C)c3C)N2)c(O)c1 (stereo not given) | inactive | – |
| C[C@@H]1Cn2cnc(C(=O)Nc3cccc(Cl)c3)c2C(=O)N1 | inconclusive [inhibitor, single point] | – |
| CC(C)C12CN3CC(C(C)C)(CN(C1)C3c1ccc3c(c1)OCO3)C2=O (stereo not given) | inconclusive [inhibitor, single point] | – |
| Oc1ccc(Nc2nc(-c3ccc(Cl)cc3)nc3ccccc23)cc1 | inconclusive [inhibitor, single point] | – |
| CC1(C)C=Cc2c(cc3occ(-c4ccc5c(c4)OCO5)c(=O)c3c2O)O1 | inactive | – |
| COCCNc1nc(CSc2ccccc2)nc2sc(C)c(C)c12 | inconclusive [inhibitor, single point] | – |
